{"source": "PubChem BioAssay AID1347434", "about": "(National Center for Advancing Translational Sciences (NCATS), 2020)", "note": "The campaign covered roughly 1,200 compounds. About 30 (2%) were called active. The inconclusive results got no clear call from the source; some entries with a clear call stand among them for comparison. Calls come from the whole dose curve; as a rule, active = well fitted inhibition curve with a large enough effect; inconclusive = small, poorly fitted or top-dose-only effect; inactive = flat fitted curve, though single readings scatter. A potency beside an inconclusive call is a rough fit, not a confirmed value. Potency is the fitted concentration of half-maximal effect; tags give direction and shape of the fitted curve.", "data": [{"target": "Single-stranded DNA cytosine deaminase (Homo sapiens) (UniProt Q9GZX7)", "sequence (Q9GZX7 whole entry, looked up)": "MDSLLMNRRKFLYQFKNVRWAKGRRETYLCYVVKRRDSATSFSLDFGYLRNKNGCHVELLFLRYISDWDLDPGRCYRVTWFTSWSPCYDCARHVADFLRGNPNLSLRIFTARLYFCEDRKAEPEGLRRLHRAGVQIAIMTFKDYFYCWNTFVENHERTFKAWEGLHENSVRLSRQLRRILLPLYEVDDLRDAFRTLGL", "test": "Confirmatory qHTS assay for inhibitors of Activation Induced Cytidine Deaminase (AID): AID signals", "conditions": "recombinant AID, FRET deamination/UDG coupled fluorescence, 4 h; series mostly up to 115 µM", "text": "Assay Provider (PI) Patricia Gearhart Ph.D. National Institute on Aging National Institute of Health (NIH), Bethesda, MD Assay Provider (PI) Rahul Kohli Ph.D. Perelman School of Medicine University of Pennsylvania, Philadelphia, PA Activation-Induced Deaminase (AID) is a cytosine deaminase which converts cytosine into uracil within stretches of ssDNA. The presence of uracil in DNA initiates a cascade of mutagenic DNA repair to introduce point mutations and DNA double strand breaks. Specific targeting of AID to the immunoglobulin heavy chain loci (Igh) promotes mutagenesis in the antibody variable region for somatic hypermutation (SHM) or switch regions leading to class switch recombination (CSR). However, AID also plays a role in accumulating unnecessary mutations across the genome. Mis-targeting of AID results in the initiation of tumor development and leads to greater drug resistance among cancer cells when continually expressed. To identify an AID inhibitor, a small molecule library will be screened in collaboration with NCATS core facility at NIH. To confirm biological function, inhibitors will be examined in an in vitro murine B-cell activation assay and subsequent secondary validation screens. Top molecules will be further screened to identify inhibitory efficacy against a wild type primary splenocytes assay. Using these approaches, we hope to identify a small molecule with great efficacy and low toxicity for use as a molecular probe to further characterize AID's intricacies, or even as a therapeutic. A FRET based analysis of cytosine deamination, was developed to identify potential inhibitors of AID catalytic activity. This screen has two signal output, Read 1 evaluates the AID inhibition response. The second readout (Read 2) evaluates UDG response and is uses as a counterscreen to exclude false positive inhibitors. Inhibition in AID and inactivity in the UDG signal is the desired outcome for this assay.\nPROTOCOL TABLE SEQUENCE No. (e.g., 1, 2, 3, etc.); […] (e.g., Cells, Incubation, Reagent, etc.); VALUE; DESCRIPTION 1a; Reagent; 3 uL; [4/3x] 1 uM AID/2.67 U/mL UDG 1b; Reagent; 3 uL; 2 U/mL UDG 1c; Reagent; 3 uL; 1 uM AID 2a; Compound; 46 nL; Follow-up plates (0.64 uM - 10 mM) 2b; Control; 46 nL; ATA (16.4 nM - 10 mM) 3; Time; 10 min; incubation at room temperature 4; Reagents; 1 uL; [4x] 250 nM DJC20 / 250 nM DJC23 [Substrate] 5; Time; 4 hr; incubation at room temperature 6; Reagent; 4 uL; [2x] 250 mM NaOH 7; Time; 15 sec; centrifuge at 1000 rpm 8; Time; 30 min; incubation at room temperature 9a; Detection; fluorescence (Read 1: AID); EnVision (PerkinElmer) plate reader, 540 excitation and 590 emission filters 9b; Detection; fluorescence (Read 2: UDG); EnVision (PerkinElmer) plate reader, 560 excitation and 665 emission filters NOTES (numbers refer to sequence above) 1a; Reagents were dispensed in a medium-binding black solid-bottom Greiner plates (789176F) using a BioRptr liquid dispenser. Dispense 3 uL of [4/3x] 1 uM AID (provided by Kohli lab) and [4/3x] 2 U/mL UDG (NEB M0280L) into columns 1, 2, 5 to 48. 1b; Dispense 3 uL of [4/3x] 2 U/mL UDG into column 3. 1c; Dispense 3 uL of [4/3x] 1 uM AID into column 4. 2a; Compound ([…] [uM]: 0.64; 3.2; 16; 80; 400; 2,000; 10,000; 20,000) double pin-transferred (Dip Factor = 2) using the Kalypsys (Wako USA) pintool equipped with a 1536 pinhead for a final concentration range of 7.32 nM - 114 uM. 2b; 10 mM Aurintricarboxylic Acid (Sigma A1895) (ATA, 8-point, n = 2, 1:2.5 dilution in column 2) double pin-transferred (Dip Factor = 2) using the Kalypsys (Wako USA) pintool equipped with a 1536 pinhead for a [final] range of 186 nM - 114 uM. 3; Room temperature incubation. 4; Dispense 1 uL of substrate mixture from the Kohli lab [4x] […] DJC20 and [4x] 250 nM DJC23 into columns 1 to 48 . 5; Room temperature incubation. 6; Dispense 4 uL of […] [2x] 250 mM NaOH into columns 1 to 48. 7; Centrifugation step to remove bubbles. […]", "values": [{"smiles": "CC(=O)c1c(O)c(C)c(O)c(Cc2c(O)c3c(c(C(=O)/C=C/c4ccccc4)c2O)OC(C)(C)C=C3)c1O", "Potency": "active: 14.1 µM"}, {"smiles": "CCCCC/C=C\\C/C=C\\C/C=C\\C/C=C\\CCCC(=O)NCC(=O)O", "Potency": "inconclusive: 31.6 µM [inhibitor, single point]"}, {"smiles": "CN1CC[C@@]2(C)c3cc(O)ccc3N(C)C12", "note": "(some centres undefined)", "Potency": "active: 22.4 µM"}, {"smiles": "O=C(c1ccc2c(c1)N(Cc1ccc(F)cc1)C(=O)c1ccccc1S2)N1CCC2(CC1)OCCO2", "Potency": "inactive"}, {"smiles": "COc1ccc2c(c[n+](C)c3c4cc5c(cc4ccc23)OCO5)c1OC", "Potency": "active: 17.8 µM"}, {"smiles": "Cc1ccccc1CN1C(=O)C(C)N=C(c2ccccc2)c2ccccc21", "note": "(centres undefined)", "Potency": "inactive"}, {"smiles": "CN(N=O)c1cc(O)ccc1O", "Potency": "inconclusive: 79.4 µM [inhibitor, single point]"}, {"smiles": "Cc1ccc(NC(=O)N(Cc2ccc3c(c2)OCO3)C2CCN(Cc3ccccc3)CC2)cc1C", "Potency": "inactive"}, {"smiles": "CN(N=O)c1ccc(O)c(O)c1", "Potency": "inconclusive: 25.1 µM [inhibitor, partial curve, poor fit]"}]}]}
